Among all 320,000 compounds or so, about 7,600 (2.4%) were called active. Inconclusive results, whose numbers are uncertain, are shown with a selection of clear calls. Calls come from the whole dose curve; as a rule, active = well fitted activation curve with a large enough effect; inconclusive = small, poorly fitted or top-dose-only effect; inactive = no such curve, though single readings can be large or run the other way. No potency is given beside an inconclusive call; the fits are too rough.
experiment: qHTS Assay for NPC1 Promoter Activators; settings: Huh7 NPC1 promoter luciferase reporter, 24 h; series mostly up to 9.22 µM; note: nearly all actives have a fitted effect of over 60% in size;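 for activation: reporter is driven by a mutant NPC1 promoter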
Outline: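 Huh7 cells stably carrying NPC1 promoter–luciferase, plated in Opti-MEM with 10% FBS for 2 h, were exposed to compound in DMSO for 24 h at 37 °C; luciferase reagent was added for 10 min and luminescence read.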
Potency is the fitted concentration of half-maximal effect; tags give direction and shape of the fitted curve.

SMILES	Potency
COc1cc(/C=C2/C(=O)NN(c3cccc(F)c3)C2=O)ccc1OC(=O)c1ccco1	inactive
Cc1ccc(-n2ncc3c(NCc4ccco4)ncnc32)cc1C	active: 2.82 µM
O=C(/C=C/c1ccc(Cl)cc1Cl)NCc1ccco1	inconclusive [activator, partial curve]
CC(C)(C)n1cnc2cc(NCc3cccs3)ccc21	inconclusive [activator, partial curve]
COc1cccc(-c2c(C(=O)N/N=C/c3ccc(C)s3)nnn2-c2nonc2N)c1	inconclusive [activator, single point]
CCc1nnc(NC(=O)/C=C/c2cccs2)s1	inconclusive [activator, single point]
COc1ccc(-c2nnc(SC(C)C#N)o2)cc1 (configuration not stated)	inconclusive [activator, single point]
Cc1cccc(NC(=O)Nc2ccc(F)cc2)n1	inconclusive [activator, single point]
O=C(NC1CCCCC1)c1n[nH]c2c1CCCCC2	inconclusive [activator, full curve]
CC(=O)Nc1ccc(NC(=O)Nc2ccccc2)cc1	inconclusive [activator, single point]
Cc1cc(C(F)(F)F)c(C#N)c(SCC(=O)Nc2nc3ccccc3s2)n1	active: 1.26 µM
O=C(C[n+]1ccccc1)Nc1c(Cl)cc(Cl)cc1Cl	inactive
Cc1cccc(CSc2ccc(-c3cccs3)nn2)c1	inconclusive [activator, partial curve]
CC1=CC(=C2N=C(c3ccccc3)OC2=O)C=C(C)O1	inconclusive [activator, single point]
CCN(CC)S(=O)(=O)c1cccc(C(=O)NCCCn2ccnc2)c1	inactive
COc1cccc2cc(-c3nc4ccccc4[nH]3)c(=O)oc12	active: 1.41 µM
Cc1ccc(S(=O)(=O)N2[C@@H](c3ccccc3F)C(C(=O)O)=CC[C@H]2c2cccc(Cl)c2)cc1	inactive
C=CCNc1ncnc2c1[nH]c1ccc(C)cc12	inconclusive [activator, single point]
CC(=O)NCCc1nc2cc(NC(=O)c3ccccc3)ccc2n1C	inconclusive [activator, partial curve]
COc1cc(C)c(Cl)cc1S(=O)(=O)N1CCSC1	inactive
Cc1ccc(N2C(=O)c3ccccc3C2O)nc1 (configuration not stated)	inconclusive [activator, partial curve]

SMILES	Potency
C=CCNC(=O)c1ccc2nc(-c3ccccc3)c(-c3ccccc3)nc2c1	inactive
Cc1cccc(-n2c(C)cc(/C=N\NC(=O)c3ccco3)c2C)c1	inconclusive [activator, partial curve]
CCCCn1nc(C(=O)Oc2ccc3c(C)cc(=O)oc3c2)c2ccccc2c1=O	inactive
Cc1ccc(Nc2nc3ccccc3o2)cc1F	inconclusive [activator, partial curve]
N/C(=N\OC(=O)c1cc(Br)ccc1Cl)c1cccnc1	inconclusive [activator, single point]
Cc1cc(C(=O)NCCCn2ccnc2)sc1-c1ccccc1	inactive
C/C(=N\NC(=O)c1cccc2ccccc12)c1cccs1	inconclusive [activator, partial curve]
COc1ccc(NC(=O)Nc2nnc(-c3ccccc3F)s2)cc1	inconclusive [activator, partial curve]
O=C(Nc1cc2ccccc2oc1=O)C1CCCCC1	active: 0.447 µM
Cc1ccc(NC(=O)CSc2nnc(-c3cccnc3)n2-c2ccc(C)cc2)cc1	inactive
CC(=O)c1csc(COc2ccc(Cl)cc2)n1	active: 0.891 µM
CN(C)c1ccc(/C=C/C=C2/SC(=S)N(c3ccccc3)C2=O)cc1	inconclusive [activator, single point]
O=c1c2ccccc2nnn1CSc1ccccc1F	active: 1.26 µM
COc1cnc(NS(=O)(=O)c2ccc(N)cc2)nc1	inactive
c1ccc(CCCOCCC2CO2)cc1 (configuration not stated)	inactive
O=C(COc1ccc(Cl)cc1Cl)Nc1ccccn1	inconclusive [activator, full curve]
COc1ccc(OCc2cc(C(=O)N(C)C3CCOCC3)no2)c2ccccc12	inconclusive [activator, single point]
CC(C)(C)C(=O)Nc1nnc(SCc2ccc(F)cc2)s1	inactive
CN1CCN(C(CNC(=O)C(=O)NC2CCCCC2)c2ccc(F)cc2)CC1 (configuration not stated)	inactive
Cc1ccc2oc(C(=O)Nc3nonc3C)c(C)c2c1	inconclusive [activator, partial curve]
Fc1ccccc1-c1cc2ncccc2cn1	inconclusive [activator, partial curve]

SMILES	Potency
Cc1occc1C(=O)Nc1ccc(Br)cc1F	inconclusive [activator, partial curve]
O=C(NCCc1ccccc1)c1cnc2ccccn2c1=O	active: 0.891 µM
CCOc1ccc(/C=N/N(C)c2ccccc2)cc1OC	inconclusive [activator, single point]
CCCCCCCC(=O)Oc1ccc(C(=O)Nc2cc(C)on2)cc1	inconclusive [activator, single point]
CC(=O)N(/N=C1\Sc2ccccc2C1=O)c1cccc(C)c1	inconclusive [activator, single point]
CS(=O)(=O)N1CCc2cc(C(=O)Nc3ccc(Br)cc3)ccc21	inconclusive [activator, single point]
Cc1c(C)n(C)c2ccc(C(=O)NCCc3ccco3)cc12	inconclusive [activator, partial curve]
CN(Cc1ccccc1)C(=O)Cc1ccccc1	inactive
O=C(COC(=O)c1c(F)cccc1Cl)NC1CCCCC1	inconclusive [activator, partial curve]
COC(=O)[C@@H](NC(=O)O[C@@H]1C(=O)c2ccc(OC)cc2O[C@H]1c1cccc(C(F)(F)F)c1)C(C)C	inactive
COc1ccc(/C=C/C(=O)Nc2cc(C)nn2-c2nc3ccccc3[nH]2)cc1	active: 3.98 µM
CCc1ccc(NC(=O)c2ccc3nc(N)sc3c2)cc1	inconclusive [activator, partial curve]
COCCCN=C1NN=C(c2cc(C)n(Cc3ccco3)c2C)CS1	active: 6.31 µM
N/C(=N\OC(=O)COc1ccc(Br)cc1Cl)c1cccnc1	inconclusive [activator, single point]
Cc1ccccc1NC(=O)c1ccc2ccccc2c1	inconclusive [activator, partial curve]
CC(=O)c1sc(N/N=C\c2ccccc2O)nc1C	inconclusive [activator, single point]
COc1cccc2cc(CC(=O)c3ccccc3)c(=O)oc12	inconclusive [activator, partial curve, poor fit]
Cc1ccc(-c2cc(C(=O)Nc3ccccc3C)c3ccccc3n2)o1	inactive
O=C(Nc1ccc(Cl)cc1)NC1CCCCC1	active: 1.12 µM
O=C(Nc1ccc(S(=O)(=O)N2CCOCC2)cc1)c1ccco1	inactive
Cc1cc(NC(=O)c2ccc(Cn3nc(C)c(Br)c3C)o2)no1	inactive

SMILES	Potency
Nc1ccc2oc(=O)c(-c3ccccc3)cc2c1	inconclusive [activator, single point]
O=C(Nc1ccc(N2CCOCC2)cc1)Nc1ccc(Cl)c(Cl)c1	inactive
CSc1nnc2c3c4c(sc3nc(-n3nc(C)cc3C)n12)COC(C)(C)C4	inactive
CCNc1nc(N)c(C(=O)c2ccc(Cl)s2)s1	inconclusive [activator, partial curve]
CSc1nc2sc(-c3ccccc3)cc2c(=O)n1N	active: 1.26 µM
N#Cc1cc2cc3c(cc2nc1N1CCCCC1)OCCO3	inconclusive [activator, single point]
CC(OC(=O)C1CCCC1)C(=O)Nc1ncc(Cl)cc1Cl (configuration not stated)	inactive
Cc1cc(C(=O)COc2ccccc2Cl)c(C)n1C1CC1	inconclusive [activator, partial curve]
O=C(Nc1ccc(F)cc1)c1ccccc1	inconclusive [activator, partial curve]
C=C(C)C(=O)N1CC2(CC(c3cccc(NC(=O)CCCCC)c3)=NO2)C[C@H]1C(N)=O (some centres not stated)	inactive
Cn1cnc2cc(NC(=O)c3cccs3)ccc21	inconclusive [activator, partial curve]
COc1ccccc1CNC(=O)CSc1ccccc1	inconclusive [activator, partial curve]
CC(C)Oc1ccc(C(=O)Nc2cccc3cccnc23)cc1	inactive
O=C(NCCO)c1ccc2c3n(nc2c1)-c1ccc(Cl)cc1CO3	active: 2 µM
CCOc1ccc(C(=O)NN2CCOCC2)cc1	inactive
O=C(Cn1nc2ccccc2n1)N/N=C/c1cc(Cl)cc([N+](=O)[O-])c1O	inactive
CCn1nnc(NC(=O)c2ccc(C(C)(C)C)cc2)n1	active: 2.24 µM
COC(=O)c1cnn2c3c(c(C)nc12)CCCC3	inconclusive [activator, partial curve]
O=C(Nc1cccc(O)c1)c1ccc(C(F)(F)F)cc1	inconclusive [activator, single point]
